PubChem BioAssay AID485294 (National Center for Advancing Translational Sciences (NCATS), 2010)
Out of some 370,000 compounds screened, about 150 (0.041%) were called active. The inconclusive results got no clear call from the source; some entries with a clear call stand among them for comparison. Calls follow the shape of the dose curve; as a rule, active = well fitted inhibition curve with a large enough effect; inconclusive = small, poorly fitted or top-dose-only effect; inactive = flat fitted curve, though single readings scatter. No potency is given beside an inconclusive call; the fits are too rough.
Also: nearly all actives have a fitted effect of over 25% in size.
Potency is read from the fitted curve at half-maximal effect; tags tell the direction and shape of the fitted curve.

The compounds below were run against Beta-lactamase (Escherichia coli (strain K12)) (UniProt P00811) (assay: qHTS Inhibitors of AmpC Beta-Lactamase (assay with detergent)). Conditions: AmpC hydrolysis of nitrocefin, absorbance 480 nm, 0.01% Triton; series mostly up to 114 µM.
Sequence of UniProt P00811 (P00811 whole entry, looked up): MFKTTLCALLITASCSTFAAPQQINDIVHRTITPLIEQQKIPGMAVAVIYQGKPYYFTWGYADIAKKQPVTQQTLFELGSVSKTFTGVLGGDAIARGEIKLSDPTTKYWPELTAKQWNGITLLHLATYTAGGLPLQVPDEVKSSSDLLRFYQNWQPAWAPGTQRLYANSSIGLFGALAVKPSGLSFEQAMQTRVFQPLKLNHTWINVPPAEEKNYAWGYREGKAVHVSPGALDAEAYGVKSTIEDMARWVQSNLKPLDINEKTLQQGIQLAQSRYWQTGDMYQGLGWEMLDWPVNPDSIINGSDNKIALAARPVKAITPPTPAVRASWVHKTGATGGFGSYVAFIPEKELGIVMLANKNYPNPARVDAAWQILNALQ
How it was run: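 20 mM phosphate pH 7.0 + 0.01% (detergent screen) or 0.0001% Triton X-100; 5.3 nM AmpC reagent; cpd preinc 15 min RT; nitrocefin (800 uM stock) to start; A480 q20 s × 4 min; Activity was normalised to no-enzyme and no-compound control wells.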
In the case of `Cn1c(=O)n(C)c2cc(N3CCOCC3)c(NS(=O)(=O)c3ccc(Cl)cc3)cc21`, the Potency is reported as “inactive”. In the case of `Cc1cc(C)n(-c2ccc(C(F)(F)F)cc2[N+](=O)[O-])n1`, the Potency is reported as inconclusive [inhibitor, partial curve, poor fit]. In the case of `COc1ccc(NC(C)=O)cc1NC(=O)CSc1nnc(-c2ccc(F)cc2)n1N`, the Potency is reported as inconclusive [inhibitor, full curve, poor fit]. With `CCC(C)NC(=O)Nc1ccc(Br)cc1` (stereo not drawn) the Potency was “inactive”. `O=C1CC(N2CCN(C/C=C/c3ccccc3)CC2)C(=O)N1Cc1ccc(N2CCCC2=O)cc1` (stereo not drawn) was tested, and the Potency was inconclusive [inhibitor, partial curve, poor fit]. `CCCCn1c(/N=C/c2cc(OC)ccc2O)nc2ccccc21` was tested, and the Potency was inconclusive [inhibitor, full curve, poor fit]. In the case of `CC(=O)N1CCc2cc(S(=O)(=O)NC(Cc3ccccc3)C(=O)NCc3ccccc3Cl)ccc21` (stereo not drawn), the Potency is reported as “inactive”. `COc1cc(S(=O)(=O)NC2CCCCC2)ccc1Cl` was tested, and the Potency was inconclusive [inhibitor, single point]. For `CC(C)(C)C1CCc2onc(C(=O)NC3CCCC3)c2C1` (stereo not drawn), the Potency was “inactive”. For `Cc1ccc(N=Cc2c(O)n(-c3nccs3)c(=O)c3ccccc23)c(C)c1`, the Potency was inconclusive [inhibitor, full curve]. In the case of `O=C(CSc1nncs1)NCCCc1ccccc1`, the Potency is reported as inconclusive [inhibitor, full curve]. In the case of `Cc1ccc(OCCSc2nc3ccc(NC(=O)c4ccco4)cc3s2)cc1`, the Potency is reported as “inactive”. `O=C(Cc1ccccc1)Nn1cnc2ccccc21` was tested, and the Potency was inconclusive [inhibitor, full curve]. With `O=C(CCNC(=O)c1ccccc1)Oc1ccc([N+](=O)[O-])cc1` the Potency was “inactive”. For `O=C(OCC(=O)N1CCCc2ccccc21)c1cc(S(=O)(=O)N2CCOCC2)ccc1Cl`, the Potency was inconclusive [inhibitor, full curve, poor fit]. In the case of `CCNC(=S)Nc1ccc(OCC)cc1`, the Potency is reported as inconclusive [inhibitor, full curve]. `O=C(c1ccccc1Cl)N1N=C(c2cccs2)CC1c1cccc(O)c1` (stereo not drawn) was tested, and the Potency was “inactive”. For `CCCc1cc(C(=O)NCc2cccs2)no1`, the Potency was inconclusive [inhibitor, partial curve]. `CCOc1cc(C#N)ccc1OCC(=O)N1CCN(C(=O)c2cccs2)CC1` was tested, and the Potency was inconclusive [inhibitor, full curve]. With `COc1ccc(NC(=O)c2cccc(-n3cnnn3)c2)cc1` the Potency was inconclusive [inhibitor, partial curve, poor fit]. For `COc1ccccc1/C=C\C(=O)NCC(=O)N/N=C(/C)c1cccc([N+](=O)[O-])c1`, the Potency was inconclusive [inhibitor, full curve, poor fit]. In the case of `Cc1ccc2oc(C(Cl)(Cl)Cl)cc(=O)c2c1`, the Potency is reported as inconclusive [inhibitor, single point]. `CCc1noc(C)c1C(=O)NCCc1ccc(Cl)cc1` was tested, and the Potency was inconclusive [inhibitor, full curve, poor fit]. In the case of `Cc1ccc(C)c(S(=O)(=O)N2CCCCC2CCNC(=O)C(=O)NCc2ccncc2)c1` (stereo not drawn), the Potency is reported as “inactive”. In the case of `CCN(CC)S(=O)(=O)c1cccc(NC(=O)CN2C(=O)NC3(CCOc4ccccc43)C2=O)c1` (stereo not drawn), the Potency is reported as inconclusive [inhibitor, single point]. `Cc1nnc(NC(=O)C2CC(=O)N(C(C)c3ccccc3)C2)s1` (stereo not drawn) was tested, and the Potency was “inactive”. With `CCOC(=O)CCCC(=O)N1CCOCCOCCN(C(=O)CCCC(=O)OCC)CCOCCOCC1` the Potency was “inactive”. In the case of `COc1cc(C(=O)NCc2ncccc2C)ccc1OC1CCN(C(C)=O)CC1`, the Potency is reported as “inactive”. `CC(C)(C)NC(=O)C(OC(=O)c1ccco1)c1ccccc1F` (stereo not drawn) was tested, and the Potency was inconclusive [inhibitor, full curve, poor fit]. For `CNC(=S)N(CCc1c(C)[nH]c2ccccc12)Cc1cc(OC)c(OC)c(OC)c1`, the Potency was inconclusive [inhibitor, full curve, poor fit]. For `COc1ccccc1NC(=S)NCC1CCCO1` (stereo not drawn), the Potency was inconclusive [inhibitor, full curve, poor fit]. `COc1ccc(C(=O)NC2CCCCCC2)cc1S(=O)(=O)N1CCCc2ccccc21` was tested, and the Potency was inconclusive [inhibitor, full curve, poor fit]. In the case of `C[C@H](NC(=O)NCc1cccs1)C(=O)O`, the Potency is reported as inconclusive [inhibitor, partial curve]. In the case of `CCC(=O)N1CCCc2cc(S(=O)(=O)N3CCC(C(=O)Nc4ccc(C#N)cc4)CC3)ccc21`, the Potency is reported as “inactive”. With `COc1cc(/C=N/Nc2nncn2N)ccc1OCc1c(C)no[n+]1[O-]` the Potency was “inactive”. `COC(C(=O)N1CCC(n2nccc2NC(=O)C2CC2)CC1)c1ccccc1` (stereo not drawn) was tested, and the Potency was “inactive”. For `O=C(NNC(=O)c1cccs1)c1ccncc1`, the Potency was inconclusive [inhibitor, full curve, poor fit]. With `Cc1oc2ccc(OC(=O)N3CCOCC3)cc2c1C(=O)OC(C)C` the Potency was inconclusive [inhibitor, full curve]. For `O=c1c2ccccc2c(-c2ccccc2)nn1-c1cc(Cl)ccc1[N+](=O)[O-]`, the Potency was inconclusive [inhibitor, single point]. With `COc1ccc(CCNC(=O)CCC(=O)Nc2nnc(C(C)C)s2)cc1OC` the Potency was inconclusive [inhibitor, full curve, poor fit]. For `COC(=O)c1ccc(Cn2c(O)c(N=O)c3ccccc32)o1`, the Potency was inconclusive [inhibitor, full curve, poor fit]. For `Cc1noc(C)c1S(=O)(=O)NCc1ccc2c(c1)OCO2`, the Potency was inconclusive [inhibitor, full curve, poor fit]. In the case of `Cc1ccc(C(=O)CC2(O)C(=O)N(Cc3ccc4c(c3)OCO4)c3ccccc32)cc1` (stereo not drawn), the Potency is reported as inconclusive [inhibitor, full curve, poor fit]. In the case of `Cc1cccc(CC2CC(=O)N(c3ncccn3)C2=O)c1` (stereo not drawn), the Potency is reported as inconclusive [inhibitor, full curve, poor fit]. For `COc1ccc(NS(=O)(=O)c2ccc(C)c(NC(=O)NC3CCCCC3)c2)cc1`, the Potency was “inactive”. For `CCN(CC)c1ccc2c(Cl)cc(=O)oc2c1`, the Potency was “inactive”. With `N#CCCS(=O)(=O)c1nnnn1-c1ccccc1` the Potency was “inactive”. For `O=C(Nc1nccs1)c1ccc(-c2ccccc2Cl)o1`, the Potency was “inactive”. `CCCn1c(C)cc(C)c(C#N)c1=O` was tested, and the Potency was inconclusive [inhibitor, partial curve]. With `COc1ccc(NC(=O)c2cc3c(=O)n(Cc4cccnc4)ccc3nc2C)c(OC)c1` the Potency was “inactive”. `Cc1ccc(NC(=O)COCC(=O)Nc2ccc(C)cc2)cc1` was tested, and the Potency was inconclusive [inhibitor, full curve, poor fit]. With `COc1ccc(N2CCN(C(=O)CN3C(=O)NC4(CCCc5ccccc54)C3=O)CC2)cc1` (stereo not drawn) the Potency was inconclusive [inhibitor, partial curve]. For `COc1ccccc1NC(=O)[C@H](COCc1ccccc1)NC(=O)OC(C)(C)C`, the Potency was inconclusive [inhibitor, full curve, poor fit]. In the case of `CC1(C)CC(=O)C2=C(C1)N(CCN1CCOCC1)C1=C(C(=O)CC(C)(C)C1)C2c1cccc(F)c1`, the Potency is reported as inconclusive [inhibitor, single point]. For `Cc1ccc(/C=N/NC(=O)c2ccc3nc[nH]c3c2)s1`, the Potency was inconclusive [inhibitor, single point]. `CC(=O)Nc1cccc(C(=O)OCc2csc(CC(=O)Nc3ccccc3C)n2)c1` was tested, and the Potency was inconclusive [inhibitor, full curve, poor fit]. In the case of `COc1ccccc1-c1nnc(SCC(=O)Nc2nc(-c3ccccc3)cs2)n1C`, the Potency is reported as “inactive”. With `CCc1cccc(N(C(=O)c2csnn2)C(C(=O)NC2CCCC2)c2cccnc2)c1` (stereo not drawn) the Potency was inconclusive [inhibitor, full curve, poor fit]. With `Cc1ccc2c(c1)N(C(=O)CCC(=O)N1CCN(c3ccccn3)CC1)CCO2` the Potency was inconclusive [inhibitor, partial curve, poor fit]. `COc1cc(C(=O)N2CCN(C3CCC(C)CC3)CC2)cc(OC)c1OC` (stereo not drawn) was tested, and the Potency was inconclusive [inhibitor, partial curve, poor fit]. For `COc1ccc(OCC(=O)NC(Cc2c[nH]c3ccccc23)C(=O)O)cc1` (stereo not drawn), the Potency was “inactive”. `CCCNC(=O)CN1C(=O)NC(c2ccccc2)(c2ccccc2)C1=O` was tested, and the Potency was inconclusive [inhibitor, full curve, poor fit]. With `CCOc1ncccc1C(=O)N=C1SCCN1C(=O)c1cccnc1OCC` the Potency was inconclusive [inhibitor, full curve]. For `COc1cccc(/C=C/C(=O)OCC(=O)Nc2cccc(S(=O)(=O)N3CCCCC3)c2)c1OC`, the Potency was inconclusive [inhibitor, single point]. In the case of `COC(=O)[C@H](Cc1ccccc1)NC(=O)N1Cc2ccccc2C[C@H]1C(=O)OC`, the Potency is reported as “inactive”. In the case of `O=C(COC(=O)c1cccnc1Cl)Nc1cc(S(=O)(=O)N2CCCCCC2)ccc1Cl`, the Potency is reported as inconclusive [inhibitor, single point]. `Nn1c(SCc2cccc3ccccc23)nnc1-c1ccco1` was tested, and the Potency was inconclusive [inhibitor, single point]. With `CCOc1ccccc1CNS(=O)(=O)c1ccc2c(c1)C(C)(C)C(=O)N2C` the Potency was inconclusive [inhibitor, full curve].
